In PubChem BioAssay AID493208 (National Center for Advancing Translational Sciences (NCATS), 2011):
Among all 44,000 compounds or so, about 340 (0.77%) were called active. Roughly 5% stayed inconclusive and do not appear here. Calls come from the whole dose curve; as a rule, active = well fitted inhibition curve with a large enough effect; inconclusive = small, poorly fitted or top-dose-only effect; inactive = flat fitted curve, though single readings scatter. The list shows a part of the results.

test: Acumen qHTS Assay for Inhibitors of the mTORC1 Signaling Pathway in MEF (Tsc2-/-, p53-/-) Cells: Sytravon; settings: phospho-rpS6 immunofluorescence/PI, 24 h; series mostly up to 38.3 µM; activity change, negative = inhibition: at the top concentration;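 note: plate controls were DMSO for no effect and rapamycin for full effect; nearly all actives have a fitted effect of over 50% in size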
How it was run: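 Tsc2-/-, p53-/- mouse embryonic fibroblasts (empty-vector line) exposed to compound 24 hrs at 37 C, fixed, immunostained for phospho-rpS6 and counterstained with propidium iodide. Acumen laser scanning gives % positive cells from Alexa 488/PI ratio, thresholded using 7.5 nM rapamycin; PI count gives viability.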

SMILES	activity change, negative = inhibition
COc1ccc(C(=O)Nc2ccc3nc(SCC(=O)N4CCOCC4)sc3c2)cc1	inactive: -1.74%
COC(=O)c1ccc(OC)c(Cn2c(=O)n(-c3ccc(C)cc3)c(=O)c3c2cnn3C)c1	inactive: -0.374%
COc1ccc(C2CC(=O)N(CC(=O)Nc3ccc(C(F)(F)F)cc3)c3ccccc3S2)cc1 (stereo not given)	inactive: 0.293%
O=C(Cn1c(=O)nc(-c2ccccc2)c2cc(Cl)ccc21)NCCCc1ccccc1	inactive: 2.83%
CCc1nn(CC(=O)NC2CC2)c(=O)c2cc3ccccc3n12	inactive: -5.94%
COc1cccc(CNC(=O)c2c3c(nc4ccccc24)C(=O)N(C2CCCCC2)C3)c1	inactive: 0%
Cn1cc(C(=O)NCc2ccccc2)c(=O)c2cc(S(=O)(=O)N3CCCCCC3)ccc21	inactive: 2%
Cc1ccccc1Oc1nc2c(c(=O)n(C)c(=O)n2C)n1Cc1ccc(Br)cc1	inactive: 1.12%
Cc1ccc(C)c(CSc2nc3ccncc3n2Cc2nc(-c3ccccc3Cl)oc2C)c1	inactive: 0.164%
CCCCc1ccc(Nc2ncnc3c2cnn3-c2ccc(C)cc2)cc1	inactive: -2.25%
CCC1CCCCN1C(=O)Cn1c(=O)n(CC2CCC(C(=O)NC)CC2)c(=O)c2sccc21 (stereo not given)	inactive: -0.699%
CC(NC(=O)CSc1n[nH]c(-c2ccccc2)n1)c1nc2ccccc2n1C (stereo not given)	inactive: 2%
COc1cc(OC)c(NC(=O)c2cc(S(=O)(=O)N3CCCC3)cn2C)cc1Cl	inactive: -0.244%
O=C(Nc1ccc(OC(F)(F)F)cc1)NC1COc2ccccc2C1 (stereo not given)	inactive: -19.5%
COc1ccc(Cl)cc1S(=O)(=O)Nc1cccc(-c2ccc(N3CCOCC3)nn2)c1	inactive: -8.18%
COC(=O)c1ccc(C(=O)OC)c(NC(=O)c2c(-c3ccccc3)c(-c3ccccc3)nn(C)c2=O)c1	inactive: 2.42%
Cc1ccc2c(c1)nc(SCC(O)c1ccc(Br)cc1)n2C (stereo not given)	inactive: -3.25%
COc1ccc(N2CCN(Cc3nc4c(c(=O)[nH]c(=O)n4C)n3Cc3ccccc3)CC2)cc1	inactive: 1.72%
Cn1c(=O)c2sccc2n2c(CCC(=O)NCc3ccccc3)nnc12	inactive: 0%
O=C(CCCn1c(=O)c2ccccc2n(CC(=O)Nc2ccc(F)cc2F)c1=O)NCc1ccccc1Cl	inactive: -8.09%
O=C(NCc1ccc(F)cc1)c1cc2c(s1)-c1ccccc1SC2	inactive: -0.133%
COc1ccc(NC(=O)c2cc3c(=O)n(Cc4ccco4)ccc3nc2C)c(OC)c1	inactive: 0.632%
CCCCOC(=O)c1ccc(NC(=O)/C(C#N)=C/c2ccc(-c3ccccc3)o2)cc1	inactive: 4.93%
COc1cc2c(=O)n(CCC(=O)NCC3CCCO3)c(=O)n(CC(=O)Nc3c(C)cccc3C)c2cc1OC (stereo not given)	inactive: -3.53%

SMILES	activity change, negative = inhibition
COc1cc(-c2nnc(SCC(=O)NC(C)C)o2)cc(OC)c1OC	inactive: -1.32%
CCOc1ccc(CCNC(=O)C2Cc3ccccc3N2C(=O)CC)cc1OCC (stereo not given)	inactive: 11.3%
CC(=O)c1ccc(NC(=O)CSc2ccc3nc(-c4ccccc4)cn3n2)cc1	inactive: 7.22%
Cc1ccc(-c2cc(C(=O)N3CCN(S(=O)(=O)c4ccc(Br)s4)CC3)[nH]n2)c(C)c1	inactive: -12.1%
CN(C)c1ccc(CNC(=O)C(Cc2ccccc2)NS(=O)(=O)c2ccc3c(c2)oc(=O)n3C)cc1 (stereo not given)	inactive: -6.85%
Cc1ccc(N(CC(=O)Nc2ccc(Br)c(C)c2)S(=O)(=O)c2cccs2)cc1	inactive: 0.568%
Cc1ccc(C)c(NC(=O)Cn2c(=O)n(Cc3cccs3)c(=O)c3cccnc32)c1	inactive: -17.4%
COc1ccc(-c2cn3nc(N4CCC(C(=O)Nc5cc(Cl)ccc5OC)CC4)sc3n2)cc1	inactive: -6.55%
CC(C)(C)OC(=O)N1CCC(c2c(C(=O)N3CCN(c4ncccn4)CC3)cnn2-c2ccc(F)cc2F)CC1	inactive: 1.95%
COc1ccc(OC)c(NC(=O)C(CCSC)NS(=O)(=O)c2cccs2)c1 (stereo not given)	inactive: -1.38%
COc1ccc(-c2nc(SCC(=O)N3CCC(C)CC3)n[nH]2)cc1	inactive: 0%
COc1ccc(C(=O)Nc2ccc(C(=O)OCc3cc(=O)n4nc(C(C)C)sc4n3)cc2)cc1	inactive: 0%
Cc1ccc(Cl)cc1NC(=O)/C(C#N)=C\c1cn(Cc2ccc(F)cc2)c2ccccc12	inactive: 3.05%
Cc1ccccc1C(=O)Nc1ccc2nc(SCCOc3ccccc3)sc2c1	inactive: -5.41%
CCOC(=O)c1c(S(=O)(=O)NCC(=O)NCc2ccc(C)cc2)c(C)n(C)c1C	inactive: 0.404%
Cc1cc(SCC(=O)NCc2ccc(Cl)cc2)nc(=O)[nH]1	inactive: -2.64%
CCCCCn1c(=O)[nH]c2cc(C(=O)Nc3ccc(F)c(F)c3)ccc2c1=O	inactive: 8.23%
Cc1ccc(S(=O)(=O)N2CCC(C(=O)NCc3ccccc3Cl)CC2)cc1	inactive: 2.64%
Cc1cccc(NC(=O)c2cc(S(=O)(=O)NCCc3ccccc3)ccc2F)c1C	inactive: 6.3%
Cc1ccccc1C(=O)Nc1cccc(OCc2cc(=O)n3c(C)csc3n2)c1	inactive: -5.29%
CCN1CCN(Cc2c(O)ccc3c(C)c(-c4ccc(OC)cc4)c(=O)oc23)CC1	inactive: -5.77%
CCN(CC)CCOC(=O)c1ccc(NC(=O)c2cc3c(=O)n(CC)c4ccccc4c3s2)cc1	inactive: -1.67%
COc1ccc(NC(=O)C2=CC(c3ccco3)=NS(=O)(=O)N2C)cc1	inactive: -4.94%
COc1ccccc1N1CCN(c2ncnc3c2nnn3C)CC1	inactive: -3.8%

SMILES	activity change, negative = inhibition
Cc1ccc(C)c(NC(=O)CN2CCSc3ccc(S(=O)(=O)N4CCCC4)cc32)c1	inactive: -1.27%
CC(C)c1ccc(S(=O)(=O)N2CCC(n3c(C(F)(F)F)nc4cccnc43)CC2)cc1	inactive: 4.35%
CCOC(=O)c1oc2ccc(S(=O)(=O)n3nc(-c4ccc(C)cc4)cc3N)cc2c1C	inactive: 2.05%
COc1ccc(NC(=O)C2CCN(S(=O)(=O)c3cccc(-c4noc(C)n4)c3)CC2)cc1OC	inactive: -1.97%
CC(C)c1ccc(CN(C(=O)c2cc3ccccc3oc2=O)C2CCS(=O)(=O)C2)cc1 (stereo not given)	inactive: 0.757%
CCOCCn1ccc2c(OCC(=O)Nc3ccc(C(N)=O)cc3)cccc2c1=O	inactive: 0.613%
CC(NC(=O)C1CCN(S(=O)(=O)Cc2ccccc2)CC1)c1ccccc1 (stereo not given)	inactive: -0.795%
COc1cccc2sc(N(Cc3cccnc3)C(=O)c3ccc4c(c3)OCCO4)nc12	inactive: 0.903%
COc1ccc(C2NC(=O)N(C)C3=C2C(=O)N(c2ccc(Br)cc2)C3)cc1 (stereo not given)	inactive: -10.9%
Cc1cc(S(=O)(=O)N2CCN(Cc3noc(CCC(=O)N4CCCCC4)n3)CC2)ccc1F	inactive: -3.2%
CN(C)c1ccc(CNC(=O)C2CCN(c3nc4ccccc4[nH]3)CC2)cc1	inactive: -0.348%
COC(=O)c1cc2occc2n1Cc1nc(-c2ccccc2)oc1C	inactive: -10.6%
CCOC(=O)CC(NC(=O)CCc1c(C)nc2c(-c3ccccc3)c(C)nn2c1C)c1ccc(OC(C)C)cc1 (stereo not given)	inactive: -5.56%
COc1cc2c(-c3cccc(Cl)c3)nc3c(c(C)nn3-c3ccccc3)c2cc1OC	inactive: 2.39%
COc1ccc(Cn2c(CCC(=O)NCc3ccc(Cl)cc3)nc3cccnc32)cc1	inactive: -2.22%
CCOC(=O)COc1ccc(C2C(C(=O)OC)=C(C)NC3=C2C(=O)c2ccccc23)cc1Cl (stereo not given)	inactive: -20.1%
COc1cccc(CNC(=O)c2cnc3sc(N4CCCC4)nn3c2=O)c1OC	inactive: -4.59%
CSc1ccc(CCNC(=O)NCc2noc3ccccc23)cc1	inactive: -0.156%
CCOC(=O)c1cc(S(=O)(=O)Nc2cc(OC)ccc2OC)[nH]n1	inactive: 0%
Cc1ccc(C(=O)NCC(c2ccc3c(c2)OCO3)N2CCOCC2)cc1C (stereo not given)	inactive: 0.659%
COc1ccc(CNc2nc(-c3ccco3)nn2S(=O)(=O)c2ccc(Cl)cc2)cc1OC	inactive: -6.76%
COc1ccc(-c2c(C#N)c(SCC(=O)Nc3ccccc3C)nc(C)c2C(=O)Nc2ccc(Cl)cc2)cc1	inactive: 7.42%
COC(=O)c1c(NC(=O)CCCOc2cccc(C)c2)sc2c1CCC2	inactive: -7.59%
Cc1cc(O)c(C(c2cccc(F)c2)N2CCN(c3ccccc3)CC2)c(=O)n1Cc1ccco1 (stereo not given)	inactive: 3.62%

SMILES	activity change, negative = inhibition
Cc1cc(C)n(-c2nnc(Nc3ccc(C)c(C)c3)c3ccccc23)n1	inactive: -17%
COc1ccc(NC(=O)c2sc3nc4c(cc3c2N)CN(Cc2ccccc2)CC4)c(OC)c1	inactive: -0.176%
Cc1ccc(C)c(CN2C(=O)c3ccccc3S(=O)(=O)c3ccc(C(=O)OCC4CCCO4)cc32)c1 (stereo not given)	inactive: 6.55%
COc1ccc(NC(=O)Cn2c(SCc3ccc(C)cc3)nc3cccnc32)cc1OC	inactive: -19.5%
CCC(C)c1ccc2oc(-c3ccc(NC(=O)c4cc5ccccc5o4)cc3)nc2c1 (stereo not given)	inactive: -6.95%
COc1ccc(C2c3cc(OC)c(OC)cc3CC(=O)N2c2ccc(C)cc2)cc1 (stereo not given)	inactive: -7.5%
CCCC(=O)Nc1nnc(S(=O)(=O)N(C)Cc2ccc(Cl)cc2)s1	inactive: -5.19%
Cc1cccc(Cn2c(=O)n3nc(-c4ccccc4)nc3c3ccccc32)c1	inactive: -11.1%
CC(C)c1ccc(S(=O)(=O)c2nnn3c2nc(N2CCCC2)c2sccc23)cc1	inactive: 5.57%
Cn1c(=O)[nH]c2cc(-c3noc(-c4ccc(Br)cc4)n3)ccc21	inactive: -7.85%
COc1ccccc1Nc1nc(-c2ccccc2F)nc2ccccc12	inactive: -1.31%
Cc1cccc(-c2nn3c(=O)cc(CN4CCN(C(=O)/C=C/c5ccccc5)CC4)nc3s2)c1	inactive: 0.131%
COc1cc2c(C(=O)Nc3cc(OC)c(OC)c(OC)c3)cn(C)c(=O)c2cc1OC	inactive: 0.262%
O=C(CC1N=C2c3ccccc3N=C(SCc3ccc(F)cc3)N2C1=O)NCc1ccc2c(c1)OCO2 (stereo not given)	inactive: 4.42%
Cc1ccc(NC(=O)CSc2nnc3ccc4ccccc4n23)cc1	inactive: -4.1%
O=C(NCCN1CCN(c2cccc(Cl)c2)CC1)Nc1ccccc1	inactive: 0.771%
CCc1ccc(NC(=O)c2ccc(-c3ccccc3)s2)cc1	inactive: -2.4%
Cc1cccc(C(=O)NCC(c2ccco2)S(=O)(=O)c2cccs2)c1 (stereo not given)	inactive: -5.63%
CCOC(=O)C1CCN(c2ncnc3c2nc2n3CCCCC2)CC1	inactive: 0.359%
Cc1cccc(NC(=O)c2ccc(-c3ccccc3)s2)c1	inactive: 0.201%
CCc1cnc2c(c1SCC(=O)NCc1ccccc1Cl)c(=O)n(C)c(=O)n2C	inactive: -2.71%
CCC(Oc1ccccc1)C(=O)Nc1nnc(S(=O)(=O)N(CC)CC)s1 (stereo not given)	inactive: -4.12%
COc1cc2ccccc2cc1C(=O)Nc1cccc(-c2nc3cc(C)c(C)cc3o2)c1	inactive: 5.68%
